Data reported in the supplement of paper PMC7125110.
Variants at the background level are over-represented here.

B1: glmS ribozyme (parent)
chain: AUAAAAGCGCCAGAACUACAGAAAUGUAGUUGACGAGGAGGAGGUUUAUCGAAUUUUCGGCGGAUGCCUCCAAA

Assays:
Conditions in all cases: with glucosamine-6-phosphate
glucosamine-6-phosphate [1] = variants of: B1; assay: kcat; higher = faster cleavage; RNA array
Procedure, shortened: (§1)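 A hybridised Cy3 probe tracked barcoded ribozyme variants, transcribed in situ by E. coli RNA polymerase on sequenced MiSeq chips, at 37 °C. The variants received 40 μM to 10 mM glucosamine-6-phosphate in HEPES/KCl/Mg(OAc)2 buffer. kobs came from decay fits and kcat and KM from weighted Michaelis–Menten fits.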

glucosamine-6-phosphate [2] = variants of: B1; assay: self-cleavage kobs at 640 uM GlcN6P; higher = faster cleavage; RNA array
Procedure, shortened: as §1

glucosamine-6-phosphate [3] = variants of: B1; assay: self-cleavage kobs at 40 uM GlcN6P; higher = faster cleavage; RNA array
Procedure, shortened: as §1

glucosamine-6-phosphate [4] = variants of: B1; assay: self-cleavage kobs at 2500 uM GlcN6P; higher = faster cleavage; RNA array
Procedure, shortened: as §1

glucosamine-6-phosphate [5] = variants of: B1; assay: self-cleavage kobs at 160 uM GlcN6P; higher = faster cleavage; RNA array
Procedure, shortened: as §1

glucosamine-6-phosphate [6] = variants of: B1; assay: self-cleavage kobs at 10000 uM GlcN6P; higher = faster cleavage; RNA array
Procedure, shortened: as §1

Variant | kcat (glucosamine-6-phosphate [1]) [s⁻¹] | self-cleavage kobs at 640 uM GlcN6P (glucosamine-6-phosphate [2]) [s⁻¹] | self-cleavage kobs at 40 uM GlcN6P (glucosamine-6-phosphate [3]) [s⁻¹] | self-cleavage kobs at 2500 uM GlcN6P (glucosamine-6-phosphate [4]) [s⁻¹] | self-cleavage kobs at 160 uM GlcN6P (glucosamine-6-phosphate [5]) [s⁻¹] | self-cleavage kobs at 10000 uM GlcN6P (glucosamine-6-phosphate [6]) [s⁻¹]
G43A U57G | < 1e-05 | < 1e-05 | – | – | – | –
A6U U45G G51C | – | – | < 1e-05 | < 1e-05 | – | –
A15C G60A | < 1e-05 | < 1e-05 | < 1e-05 | – | – | –
A36C G51U | < 1e-05 | < 1e-05 | – | – | < 1e-05 | < 1e-05
A6C C10G G32A A39G U65G | – | < 1e-05 | < 1e-05 | < 1e-05 | – | –
A6C U55G U69C | – | < 1e-05 | < 1e-05 | – | – | –
G40A G59A | < 1e-05 | < 1e-05 | < 1e-05 | – | – | –
G38A U69C | < 1e-05 | – | – | – | – | –
A6G A42C G43A G44C C50U A52C | – | < 1e-05 | < 1e-05 | < 1e-05 | < 1e-05 | < 1e-05
A6C G38U A64G | – | – | < 1e-05 | – | – | –
G32C G59A | < 1e-05 | – | < 1e-05 | < 1e-05 | < 1e-05 | –
C61A G63C | < 1e-05 | – | – | – | – | –
C34U A53U | < 1e-05 | < 1e-05 | < 1e-05 | < 1e-05 | – | < 1e-05
C10G C70G | < 1e-05 | – | < 1e-05 | – | – | –
A6G A14U U55G C68G | – | – | < 1e-05 | – | – | –
U56A C61A | < 1e-05 | – | – | – | – | –
G37U U45G | < 1e-05 | < 1e-05 | – | – | – | < 1e-05
A6G A15C C70A | – | – | < 1e-05 | – | – | –
G37C A52U | < 1e-05 | – | < 1e-05 | – | < 1e-05 | < 1e-05
A6G G51U | – | < 1e-05 | < 1e-05 | < 1e-05 | < 1e-05 | < 1e-05
A36G U69C | < 1e-05 | – | – | – | < 1e-05 | –
C11U A33U G38U | < 1e-05 | – | – | – | < 1e-05 | –
G32A A48G | < 1e-05 | < 1e-05 | – | – | – | –
A6C G13U G35A C71A | – | – | < 1e-05 | – | – | –

Variant | kcat (glucosamine-6-phosphate [1]) [s⁻¹] | self-cleavage kobs at 640 uM GlcN6P (glucosamine-6-phosphate [2]) [s⁻¹] | self-cleavage kobs at 40 uM GlcN6P (glucosamine-6-phosphate [3]) [s⁻¹] | self-cleavage kobs at 2500 uM GlcN6P (glucosamine-6-phosphate [4]) [s⁻¹] | self-cleavage kobs at 160 uM GlcN6P (glucosamine-6-phosphate [5]) [s⁻¹] | self-cleavage kobs at 10000 uM GlcN6P (glucosamine-6-phosphate [6]) [s⁻¹]
C10U G32C | < 1e-05 | < 1e-05 | < 1e-05 | – | < 1e-05 | –
A36U C67A | < 1e-05 | – | – | – | – | –
G41C U69C | < 1e-05 | – | < 1e-05 | – | < 1e-05 | –
A33G G37C | < 1e-05 | – | < 1e-05 | – | < 1e-05 | –
U49G C50U | < 1e-05 | – | – | – | < 1e-05 | –
A6G G38C C71G | – | – | < 1e-05 | < 1e-05 | – | –
U49A C50U | < 1e-05 | – | < 1e-05 | – | – | –
A6U A15G U31G G41A | – | – | < 1e-05 | – | – | < 1e-05
A6C A14C | – | – | < 1e-05 | – | < 1e-05 | –
G7C A52G | < 1e-05 | < 1e-05 | – | < 1e-05 | < 1e-05 | –
C11G A36C G37U A52U G60U G66A C67A | < 1e-05 | – | – | < 1e-05 | – | –
A36G A39C | < 1e-05 | < 1e-05 | < 1e-05 | < 1e-05 | – | < 1e-05
A6C U47A G51U | – | – | < 1e-05 | < 1e-05 | – | –
U31C A42C | < 1e-05 | – | < 1e-05 | – | < 1e-05 | –
A6U G43U G59U | – | – | < 1e-05 | – | – | –
A6U C58U | – | < 1e-05 | < 1e-05 | < 1e-05 | < 1e-05 | < 1e-05
G7U G38U | < 1e-05 | – | < 1e-05 | < 1e-05 | < 1e-05 | < 1e-05
A36U C70U | < 1e-05 | – | < 1e-05 | – | – | –
A33G G43U | < 1e-05 | – | – | – | < 1e-05 | < 1e-05
A6C A64C C71U | – | < 1e-05 | < 1e-05 | – | – | < 1e-05
A15G G63U | < 1e-05 | – | – | – | < 1e-05 | < 1e-05
A6C U46A U49A | – | – | < 1e-05 | – | < 1e-05 | –
G37C U65G | < 1e-05 | – | < 1e-05 | – | < 1e-05 | –
C10U A15U A52C | < 1e-05 | < 1e-05 | – | – | – | –
